# Data as given in PubChem BioAssay (Tox21).
# Where “and” joins values, the source holds several entries; their conditions need not be identical. Equal entries are not always repeated. The inconclusive results got no clear call from the source; some entries with a clear call stand among them for comparison. For some assays here: Potencies beside an inconclusive call are fits to weak or partial responses and may not hold up. Calls of active or inactive are those of the source. Unless noted, calls come from the whole dose curve; as a rule, active = well fitted curve in the direction sought with a large enough effect in the repeat runs; inconclusive = weak or mixed curves; inactive = no such curve, though single readings can be large; an effect the other way counts as inactive or inconclusive.
# How the values were obtained:
# [1] = qHTS assay to identify small molecule agonists of the farnesoid-X-receptor (FXR) signaling pathway - cell viability counter screen (AID 743218); details: FXR-bla HEK293T viability, CellTiter-Glo luminescence, 16 h; viability change, negative = cytotoxic: at 62.6 µM (top of the series) unless noted; note: nearly all actives have a fitted effect of over 45% in size; note: potency is the fitted concentration of half-maximal effect; for viability change, negative = cytotoxic: % is set by controls: 0 for no effect and ±100 for the full control effect
# How it was run: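 Luminescence from CellTiter-Glo, read after 30 min at RT, reports viability of GeneBLAzer FXR-UAS-bla HEK 293T cells treated 16 h with compounds in the wells used for the beta-lactamase reporter.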
# [2] = qHTS assay to identify small molecule antagonists of the vitamin D receptor (VDR) signaling pathway - cell viability counter screen (AID 743225); details: VDR-bla HEK293T viability, CellTiter-Glo luminescence, 16 h; viability change, negative = cytotoxic: at 61 µM (top of the series) unless noted; note: nearly all actives have a fitted effect of over 50% in size; note: potency is the fitted concentration of half-maximal effect
# How it was run: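 Cytotoxicity toward the VDR-bla HEK 293T line was scored by ATP-based CellTiter-Glo luminescence, read in the wells already used for the beta-lactamase readout after 16 h compound treatment under 3 nM 1-alpha,25-dihydroxyvitamin D3 stimulation.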
# [3] = qHTS RealTime-Glo MT Cell Viability Assay in HEK293 cells - 16 hour (AID 1224872); note: nearly all actives have a fitted effect of over 50% in size; note: potency is the fitted concentration of half-maximal effect; for activity change, negative = cytotoxicity: top concentration of the series differs between compounds; % is set by controls: 0 for no effect and ±100 for the full control effect
# How it was run: (§1)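 Luminescence generated by NanoLuc from substrate produced by living HEK293 cells served as the viability signal. Each value reflects the reading at its stated time point during continuous 40 h compound exposure at 37 C.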
# [4] = qHTS RealTime-Glo MT Cell Viability Assay in HEK293 cells - 24 hour (AID 1224886); note: nearly all actives have a fitted effect of over 50% in size; note: potency is the fitted concentration of half-maximal effect; for activity change, negative = cytotoxicity: top concentration of the series differs between compounds; % is set by controls: 0 for no effect and ±100 for the full control effect
# How it was run: as §1
# [5] = A CellTox Green Cytotoxicity Assay to monitor cytotoxicity in HepG2 cells - 40 hour (AID 1224879); note: nearly all actives have a fitted effect of over 40% in size; note: potency is the fitted concentration of half-maximal effect
# How it was run: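 HepG2, 600 cells/well premixed w/ CellTox Green; 5 h settle, 37 C/5% CO2; pintool cpd add (DMSO); 37 C, 40 h; fluorescence read at 0, 8, 16, 24, 32, 40 h.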
# [6] = qHTS assay to identify small molecule antagonists of the sonic hedgehog signaling (Shh) pathway (AID 1259369; calls by dose curve; note: nearly all actives have a fitted effect of over 45% in size; note: potency is the fitted concentration of half-maximal effect)
# How it was run: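 Luminescence readout: firefly Luc under Gli1 response element in 3T3Gli1-Luc cells (NIH/3T3 clone). Antagonist mode, stimulation by conditioned medium; compound exposure 24hr at 37 C, 5% CO2.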
# [7] = qHTS assay to identify small molecule agonists of the estrogen receptor beta (ER-beta) signaling pathway - cell viability counter screen (AID 1259380); note: nearly all actives have a fitted effect of over 30% in size; note: potency is the fitted concentration of half-maximal effect
# How it was run: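 Luminescence read-out (CellTiter-Glo, 30 min, room temp) taken in the same wells as the beta-lactamase reporter assay; ER-beta-UAS-bla HEK293T cells exposed to DMSO-dissolved compounds for 16 hr at 37C in 2% charcoal-stripped FBS medium.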
# [8] = qHTS RealTime-Glo MT Cell Viability Assay in HEK293 cells - 32 hour (AID 1224868); note: potency is the fitted concentration of half-maximal effect; nearly all actives have a fitted effect of over 50% in size
# How it was run: as §1
# [9] = A CellTox Green Cytotoxicity Assay to monitor cytotoxicity in HEK293 cells - 8 hour (AID 1224884); note: nearly all actives have a fitted effect of over 35% in size; note: potency is the fitted concentration of half-maximal effect
# How it was run: (§2)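 Read-out: fluorescence of a cell-impermeant cyanine dye staining DNA of dead cells, proportional to cytotoxicity. HEK293, 600 cells/well with reagent, compound (23 nL DMSO) added after 5 h; reads at 0, 8, 16, 24, 32, 40 h.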
# [10] = A CellTox Green Cytotoxicity Assay to monitor cytotoxicity in HEK293 cells - 16 hour (AID 1224888); note: nearly all actives have a fitted effect of over 35% in size; note: potency is the fitted concentration of half-maximal effect
# How it was run: as §2
# [11] = target: Estrogen receptor beta (Homo sapiens) (UniProt Q92731); experiment: qHTS assay to identify small molecule agonists of the estrogen receptor beta (ER-beta) signaling pathway (AID 1259377; active = well fitted activation curve with a large enough effect in the signal ratio in the repeat runs, not every such curve was filed as active; inconclusive = weak or mixed curves, or effect the other way; the % refers to the signal ratio; note: potency is the fitted concentration of half-maximal effect); details: ER-beta-UAS-bla HEK293T, beta-lactamase FRET ratio, 16 h; activation: at 92.4 µM (top of the series) unless noted
# UniProt Q92731, sequence (Q92731 whole entry, looked up): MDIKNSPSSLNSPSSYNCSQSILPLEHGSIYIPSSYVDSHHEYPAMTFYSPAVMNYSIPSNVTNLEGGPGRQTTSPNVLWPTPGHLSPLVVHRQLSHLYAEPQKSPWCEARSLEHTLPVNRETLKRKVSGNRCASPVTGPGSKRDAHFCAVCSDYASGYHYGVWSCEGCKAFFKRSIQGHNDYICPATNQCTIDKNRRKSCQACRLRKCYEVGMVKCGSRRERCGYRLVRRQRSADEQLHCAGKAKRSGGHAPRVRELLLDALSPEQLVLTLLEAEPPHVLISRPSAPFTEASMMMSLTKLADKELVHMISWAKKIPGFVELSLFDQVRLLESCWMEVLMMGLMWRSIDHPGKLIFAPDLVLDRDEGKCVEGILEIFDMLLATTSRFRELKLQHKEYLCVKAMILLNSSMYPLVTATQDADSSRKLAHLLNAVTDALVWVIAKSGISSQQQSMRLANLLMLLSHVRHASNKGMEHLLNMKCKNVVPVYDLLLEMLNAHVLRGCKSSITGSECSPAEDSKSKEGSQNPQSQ
# How it was run: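 Measured by fluorescence intensity from a B/G FRET beta-lactamase substrate (2 h, room temperature) in ER-beta-UAS-bla HEK293T cells treated with DMSO-dissolved compounds for 16 hr at 37C and 5% CO2.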
# [12] = target: Estrogen receptor beta (Homo sapiens) (UniProt Q92731); experiment: qHTS assay to identify small molecule antagonists of the estrogen receptor beta (ER-beta) signaling pathway (AID 1259378; active = well fitted inhibition curve with a large enough effect in the signal ratio in the repeat runs, not every such curve was filed as active; inconclusive = weak or mixed curves, or effect the other way; inactive = no such curve, though single readings can be large or run the other way; the % refers to the signal ratio; note: potency is the fitted concentration of half-maximal effect); details: ER-beta-UAS-bla HEK293T, beta-lactamase FRET ratio, 16 h; activity, negative = inhibition: at 92.4 µM (top of the series) unless noted
# How it was run: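 ER-beta-UAS-bla HEK293T (GripTite) cells in 2% charcoal-stripped FBS medium were preincubated 6 hr at 37C, dosed with compound, then stimulated with 1 nM E2 (final) for 16 hr; beta-lactamase reporter read by B/G FRET fluorescence after 2 hr substrate loading.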
# [13] = target: Thyrotropin receptor (Homo sapiens) (UniProt P16473); experiment: qHTS assay to identify small molecule antagonists of the thyroid stimulating hormone receptor (TSHR) signaling pathway (AID 1259385; calls by dose curve; note: nearly all actives have a fitted effect of over 20% in size; note: potency is the fitted concentration of half-maximal effect); details: TSHR-HEK293 cAMP HTRF, TSH-stimulated antagonist mode; activity change, negative = inhibition: at 92.4 µM (top of the series) unless noted
# UniProt P16473, sequence (P16473 whole entry, looked up): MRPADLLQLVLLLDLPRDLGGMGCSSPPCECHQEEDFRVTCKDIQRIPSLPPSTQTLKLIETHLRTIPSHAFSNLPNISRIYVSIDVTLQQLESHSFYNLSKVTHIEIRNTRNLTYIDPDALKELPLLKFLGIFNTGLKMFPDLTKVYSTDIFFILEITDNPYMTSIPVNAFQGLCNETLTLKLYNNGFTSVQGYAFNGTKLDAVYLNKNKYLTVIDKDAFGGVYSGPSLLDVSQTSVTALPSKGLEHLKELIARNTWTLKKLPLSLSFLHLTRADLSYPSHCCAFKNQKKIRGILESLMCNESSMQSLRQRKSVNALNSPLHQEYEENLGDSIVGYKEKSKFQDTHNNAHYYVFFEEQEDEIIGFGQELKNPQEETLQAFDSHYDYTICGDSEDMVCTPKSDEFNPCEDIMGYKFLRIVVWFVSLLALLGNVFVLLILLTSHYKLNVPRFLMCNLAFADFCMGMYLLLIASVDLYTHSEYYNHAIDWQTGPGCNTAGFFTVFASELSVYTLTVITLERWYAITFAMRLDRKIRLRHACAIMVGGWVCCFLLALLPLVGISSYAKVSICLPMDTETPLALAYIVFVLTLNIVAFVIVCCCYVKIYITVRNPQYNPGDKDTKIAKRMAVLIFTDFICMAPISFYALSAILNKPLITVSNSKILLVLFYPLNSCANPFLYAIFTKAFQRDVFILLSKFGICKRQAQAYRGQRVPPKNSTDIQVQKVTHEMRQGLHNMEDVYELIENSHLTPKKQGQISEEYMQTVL
# How it was run: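 TSHR-HEK293 cells were plated and held 18 h at 37C/5% CO2, then given compound plus Ro20-1724 and stimulated with TSH at 1.5 ng/mL final. After 30 min at room temperature, cAMP was detected with cAMP-d2/anti-cAMP-cryptate (1 h) by fluorescence.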
# [14] = qHTS assay for small molecule activators of the heat shock response signaling pathway (AID 743210; active = well fitted activation curve with a large enough effect in the signal ratio in the repeat runs, with a control signal flat, not every such curve was filed as active; inconclusive = weak or mixed curves; the % refers to the signal ratio; note: potency is the fitted concentration of half-maximal effect); details: HeLa HSE-bla reporter, beta-lactamase ratio, 5 h; activation: at 62.6 µM (top of the series) unless noted
# How it was run: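 Heat shock element–beta-lactamase HeLa reporter cells; qHTS with compounds for 5 h at 37 C; detection by FRET substrate fluorescence after 2.5 h at RT.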
# [15] = target: Estrogen receptor (Homo sapiens) (UniProt P03372); experiment: qHTS assay to identify small molecule agonists of the estrogen receptor alpha (ER-alpha) signaling pathway using the BG1 cell line (AID 743079); details: BG1Luc4E2 cells, ERE-luciferase agonist, 22 h; activation: at 70.3 µM (top of the series) unless noted; note: nearly all actives have a fitted effect of over 20% in size; note: potency is the fitted concentration of half-maximal effect
# UniProt P03372, sequence (P03372 whole entry, looked up): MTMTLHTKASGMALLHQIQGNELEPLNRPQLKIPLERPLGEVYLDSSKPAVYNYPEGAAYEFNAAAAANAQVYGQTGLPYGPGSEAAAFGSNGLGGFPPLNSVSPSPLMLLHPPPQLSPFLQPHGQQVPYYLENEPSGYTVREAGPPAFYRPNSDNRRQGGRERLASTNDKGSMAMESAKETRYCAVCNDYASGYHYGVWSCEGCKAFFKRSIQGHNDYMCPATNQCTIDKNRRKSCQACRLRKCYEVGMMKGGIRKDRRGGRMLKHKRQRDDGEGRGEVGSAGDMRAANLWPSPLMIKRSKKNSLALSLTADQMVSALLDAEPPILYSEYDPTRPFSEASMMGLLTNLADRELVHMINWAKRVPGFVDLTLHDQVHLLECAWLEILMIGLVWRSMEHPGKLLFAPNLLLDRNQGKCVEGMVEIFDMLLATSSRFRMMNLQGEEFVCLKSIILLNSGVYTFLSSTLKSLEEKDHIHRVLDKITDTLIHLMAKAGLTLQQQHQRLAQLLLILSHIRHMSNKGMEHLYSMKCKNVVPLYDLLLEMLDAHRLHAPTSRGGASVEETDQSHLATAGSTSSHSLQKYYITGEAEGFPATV
# [16] = target: Peroxisome proliferator-activated receptor delta (Homo sapiens) (UniProt Q03181); experiment: qHTS assay to identify small molecule antagonists of the peroxisome proliferator-activated receptor delta (PPARd) signaling pathway (AID 743215; active = well fitted inhibition curve with a large enough effect in the signal ratio in the repeat runs, not every such curve was filed as active; inconclusive = weak or mixed curves, or effect the other way; inactive = no such curve, though single readings can be large or run the other way; the % refers to the signal ratio;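 note: cells stimulated with agonist L165041 at 300 nM final during compound exposure; % is set by controls: 0 for no effect and ±100 for the full control effect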); details: HEK293H PPARd-UAS-bla, beta-lactamase FRET ratio, antagonist, 17 h; ratio activity, negative = inhibition: at 62 µM (top of the series) unless noted
# UniProt Q03181, sequence (Q03181 whole entry, looked up): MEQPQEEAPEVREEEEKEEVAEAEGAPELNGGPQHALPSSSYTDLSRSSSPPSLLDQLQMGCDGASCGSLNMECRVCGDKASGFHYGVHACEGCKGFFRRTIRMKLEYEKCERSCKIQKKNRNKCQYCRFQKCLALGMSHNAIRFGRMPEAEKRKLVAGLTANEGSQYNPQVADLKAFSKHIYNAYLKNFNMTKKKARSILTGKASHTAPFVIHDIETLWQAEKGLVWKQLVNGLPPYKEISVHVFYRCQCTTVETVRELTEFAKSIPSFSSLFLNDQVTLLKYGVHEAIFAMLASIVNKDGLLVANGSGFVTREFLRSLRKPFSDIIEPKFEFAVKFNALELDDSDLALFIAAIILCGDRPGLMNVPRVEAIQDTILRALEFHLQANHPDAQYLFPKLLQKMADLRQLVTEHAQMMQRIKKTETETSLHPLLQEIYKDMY
# How it was run: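 HEK293H GeneBLAzer PPARd UAS-bla reporter cells; cpd + L165041 300 nM final, 17 h 37 C; LiveBLAzer B/G FRET substrate 2 h RT; fluorescence intensity read-out. Antagonist mode.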
# [17] = qHTS assay for identifying genotoxic compounds that show differential cytotoxicity against isogenic chicken DT40 cell lines with known DNA damage response pathways - Rad54/Ku70 mutant cell line (AID 743015); details: DT40 Rad54/Ku70 mutant viability, CellTiter-Glo, 40 h; activity change, negative = cytotoxicity: at 66.8 µM (top of the series) unless noted; note: nearly all actives have a fitted effect of over 60% in size; note: potency is the fitted concentration of half-maximal effect
# [18] = target: Vitamin D3 receptor (Homo sapiens) (UniProt P11473); experiment: qHTS assay to identify small molecule agonists of the vitamin D receptor (VDR) signaling pathway (AID 743222; calls by dose curve; note: potency is the fitted concentration of half-maximal effect); details: HEK293T VDR-UAS-bla, beta-lactamase FRET ratio, 16 h; activation: at 63.5 µM (top of the series) unless noted
# UniProt P11473, sequence (P11473 whole entry, looked up): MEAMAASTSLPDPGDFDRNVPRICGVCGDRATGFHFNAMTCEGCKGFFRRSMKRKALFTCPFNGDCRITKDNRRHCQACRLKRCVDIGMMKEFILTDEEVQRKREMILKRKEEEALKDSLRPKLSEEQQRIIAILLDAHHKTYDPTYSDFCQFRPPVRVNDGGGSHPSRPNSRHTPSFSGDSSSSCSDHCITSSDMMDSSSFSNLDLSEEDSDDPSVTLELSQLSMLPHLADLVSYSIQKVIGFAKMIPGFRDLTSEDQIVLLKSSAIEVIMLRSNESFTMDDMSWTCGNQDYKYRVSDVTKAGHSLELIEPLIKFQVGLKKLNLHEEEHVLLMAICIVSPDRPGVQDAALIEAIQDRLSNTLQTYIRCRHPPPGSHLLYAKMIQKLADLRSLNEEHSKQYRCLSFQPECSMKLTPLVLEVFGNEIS
# How it was run: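 Beta-lactamase reporter readout (LiveBLAzer B/G FRET, 2 h RT) in VDR-bla cells after 16 h compound treatment at 37C, 5% CO2; cells pre-incubated 4 h before pin transfer of DMSO solutions.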
# [19] = qHTS assay for identifying genotoxic compounds that show differential cytotoxicity against isogenic chicken DT40 cell lines with known DNA damage response pathways - Rev3 mutant cell line (AID 743014); details: chicken DT40 Rev3-/- viability, CellTiter-Glo, 40 h; activity, negative = cytotoxicity: at 68.4 µM (top of the series) unless noted; note: nearly all actives have a fitted effect of over 55% in size; note: potency is the fitted concentration of half-maximal effect
# [20] = target: Progesterone receptor (Homo sapiens) (UniProt P06401); experiment: qHTS assay to identify small molecule antagonists of the progesterone receptor (PR) signaling pathway (AID 1346795; active = well fitted inhibition curve with a large enough effect in the signal ratio in the repeat runs, not every such curve was filed as active; inconclusive = weak or mixed curves; the % refers to the signal ratio; note: potency is the fitted concentration of half-maximal effect); details: PR-UAS-bla HEK293T, beta-lactamase FRET ratio, 16 h; activity change, negative = inhibition: at 92.4 µM (top of the series) unless noted
# UniProt P06401, sequence (P06401 whole entry, looked up): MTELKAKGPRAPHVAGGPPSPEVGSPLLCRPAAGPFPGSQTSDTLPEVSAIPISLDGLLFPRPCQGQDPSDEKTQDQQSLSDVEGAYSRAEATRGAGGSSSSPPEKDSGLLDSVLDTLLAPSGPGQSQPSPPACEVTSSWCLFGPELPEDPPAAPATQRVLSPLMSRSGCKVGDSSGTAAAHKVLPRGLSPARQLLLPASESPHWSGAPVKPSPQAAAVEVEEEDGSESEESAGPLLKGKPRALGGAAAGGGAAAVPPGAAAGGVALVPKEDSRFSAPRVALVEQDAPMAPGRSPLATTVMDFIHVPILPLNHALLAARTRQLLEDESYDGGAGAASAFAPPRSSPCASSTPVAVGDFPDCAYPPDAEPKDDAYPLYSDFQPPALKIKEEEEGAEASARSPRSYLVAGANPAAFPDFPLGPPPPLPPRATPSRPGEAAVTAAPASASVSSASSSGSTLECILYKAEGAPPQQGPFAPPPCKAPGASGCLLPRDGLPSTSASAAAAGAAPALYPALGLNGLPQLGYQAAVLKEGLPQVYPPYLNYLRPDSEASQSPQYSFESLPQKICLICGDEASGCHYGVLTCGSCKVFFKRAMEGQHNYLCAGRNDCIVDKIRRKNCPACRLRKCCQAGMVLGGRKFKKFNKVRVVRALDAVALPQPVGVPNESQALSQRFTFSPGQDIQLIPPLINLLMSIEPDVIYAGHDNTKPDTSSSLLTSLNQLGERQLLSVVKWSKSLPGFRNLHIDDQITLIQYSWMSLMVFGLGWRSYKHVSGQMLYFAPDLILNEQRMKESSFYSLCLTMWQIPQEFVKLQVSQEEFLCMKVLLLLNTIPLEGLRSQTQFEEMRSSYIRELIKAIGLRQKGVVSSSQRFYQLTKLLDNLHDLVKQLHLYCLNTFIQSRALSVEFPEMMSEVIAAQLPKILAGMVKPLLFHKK
# How it was run: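 After 6 hr plating at 37C in 2% stripped-serum medium, PR-UAS-bla HEK293T cells got compounds, then 1 nM R5020. Sixteen hours later, LiveBLAzer substrate was applied for 2 hr at room temperature and fluorescence was recorded.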
# Tags give direction and shape of the fitted curve or compound fluorescence and quenching.
structure (smiles),measurement,setting,value
CC/C=C\CCCCCCCCCCOC(C)=O,Potency,[1],inactive
same,Potency,[2],"inconclusive: 61.6 µM [rising, partial curve, poor fit]"
same,Potency,[3],inactive
same,Potency,[4],inactive
CC(C)c1cccc(C(C)C)c1,Potency,[5],inactive
same,Potency,[6],inactive
same,Potency,[7],inactive
O=S(=O)(O)c1cccc2c(S(=O)(=O)O)cccc12,Potency,[8],"inconclusive: 61.5 µM [rising, partial curve, poor fit]"
same,Potency,[3],"inconclusive: 54.8 µM [rising, single point]"
same,Potency,[9],inactive
same,Potency,[4],"inconclusive: 61.5 µM [rising, single point]"
same,Potency,[10],"inconclusive: 54.8 µM [activator, single point]"
same,Potency,[7],inactive
Oc1cc2ccccc2cc1O,Potency,[8],"inconclusive: 61.6 µM [rising, single point]"
same,Potency,[3],"inconclusive: 61.6 µM [rising, single point]"
same,Potency,[4],"inconclusive: 61.6 µM [rising, single point]"
same,Potency,[10],"inconclusive: 61.6 µM [activator, single point]"
same,Potency,[6],"inconclusive: 48.6 µM [inhibitor, partial curve]"
same,Potency,[11],"inconclusive: 61.1 µM [fluorescent, single point]"
same,Potency,[12],"inconclusive: 61.1 µM [rising, partial curve, poor fit]"
same,Potency,[7],"inconclusive: 68.6 µM [cytotoxic, single point]"
same,Potency,[13],inactive
CN(C)C,Potency,[14],inactive
same,Potency,[9],"inconclusive: 62.6 µM [activator, partial curve, poor fit]"
same,Potency,[10],"inconclusive: 62.6 µM [activator, single point]"
same,Potency,[11],inactive
CCOC(=O)CN,Potency,[4],inactive
Nc1nc2c(ncn2CCC(CO)CO)c(=O)[nH]1,Potency,[15],inactive
same,"ratio activity, negative = inhibition",[16],inconclusive: -6.36%
same,Potency,[3],inactive
same,Potency,[6],inactive
C[Si](C)(C)O[Si](O)(O)O,Potency,[17],"inconclusive: 68.6 µM [cytotoxic, single point]"
same,Potency,[14],"inconclusive: 61.6 µM [activator, partial curve, poor fit]"
same,"ratio activity, negative = inhibition",[16],inconclusive: -44.5%
same,activation,[18],inconclusive: -15.9%
same,Potency,[4],inactive
C=CCCCCCCCCOC(C)=O,"activity change, negative = cytotoxicity",[17],inconclusive: -87.6%
Nc1ccc(S(=O)(=O)O)c(N)c1,Potency,[14],inactive
same,Potency,[3],inactive
same,Potency,[9],"inconclusive: 19.5 µM [activator, partial curve, poor fit]"
same,Potency,[10],"inconclusive: 54.9 µM [activator, single point]"
N[C@@H](Cc1cc(I)c(Oc2ccc(O)c(I)c2)c(I)c1)C(=O)O,Potency,[17],"inconclusive: 33.5 µM [cytotoxic, single point]"
same,Potency,[15],active: 37.1 µM and active: 40.2 µM
same,activation,[15],inconclusive: -21.7% [phenotype inactive]
same,Potency,[1],"inconclusive: 22.8 µM [rising, partial curve, poor fit]"
same,Potency,[6],"inconclusive: 6.37 µM [inhibitor, single point]"
CCC(C)c1nccnc1OC (stereo not drawn),Potency,[17],"inconclusive: 1.09 µM [rising, full curve, poor fit]"
same,Potency,[15],inactive
Nc1[nH]c(=O)ncc1F,Potency,[18],inactive
same,Potency,[12],inactive
same,Potency,[7],"inconclusive: 33.5 µM [cytotoxic, single point]"
CC(=O)c1ccc(O)cc1,Potency,[17],inactive
same,"ratio activity, negative = inhibition",[16],inconclusive: 11.6%
same,activation,[18],inconclusive: -5.99%
same,Potency,[10],"inconclusive: 61.6 µM [activator, single point]"
same,Potency,[6],"inconclusive: 15.4 µM [inhibitor, single point]"
same,activation,[11],inconclusive: 3.8% and inconclusive: 3.92%
same,"activity, negative = inhibition",[12],inconclusive: 10.8%
same,Potency,[13],"inconclusive: 54.5 µM [falling, partial curve, poor fit]"
O=Cc1ccccc1Cl,Potency,[5],inactive
same,Potency,[9],"inconclusive: 54.1 µM [activator, single point]"
same,Potency,[10],"inconclusive: 54.1 µM [activator, single point]"
C=C(C)OC(C)=O,Potency,[19],"inconclusive: 39.8 µM [cytotoxic, partial curve]"
same,Potency,[15],inactive
same,Potency,[18],inactive
same,Potency,[5],"inconclusive: 54.9 µM [activator, single point]"
same,Potency,[12],inactive
CCCCOCCCC,Potency,[18],inactive
same,Potency,[10],"inconclusive: 61.1 µM [activator, partial curve, poor fit]"
CC(C)=CCCC(C)CC(=O)O (stereo not drawn),Potency,[2],inactive
same,Potency,[5],inactive
same,Potency,[9],inactive
FB(F)F,Potency,[19],inactive
same,"ratio activity, negative = inhibition",[16],inconclusive: -5.55% [at 80.4 µM]
same,Potency,[3],inactive
same,Potency,[9],inactive
same,Potency,[13],inactive
O=C(O)COC(=O)Cc1ccccc1Nc1c(Cl)cccc1Cl,Potency,[18],inactive
same,Potency,[12],"inconclusive: 33.5 µM [inhibitor, single point]"
same,Potency,[7],"inconclusive: 33.5 µM [cytotoxic, single point]"
same,Potency,[20],inconclusive: 29.8 µM
O=Cc1ccc(CO)o1,Potency,[17],inactive
same,Potency,[1],"inconclusive: 4.91 µM [rising, full curve, poor fit]"
same,activation,[18],inconclusive: 1.36%
same,Potency,[9],"inconclusive: 24.6 µM [activator, partial curve, poor fit] and inactive"
same,Potency,[10],"inconclusive: 24.6 µM [activator, partial curve]"
same,Potency,[12],inactive
CCO[Si](OCC)(OCC)c1ccccc1,Potency,[19],inactive
same,Potency,[14],inactive
same,Potency,[10],inactive
same,Potency,[12],inactive
CS(=O)(=O)c1ccc(Cl)cc1,Potency,[5],"inconclusive: 34.7 µM [activator, partial curve, poor fit]"
same,Potency,[11],inactive
same,Potency,[7],"inconclusive: 54.8 µM [rising, single point]"
CC1(C)C(=O)C(C)(C)C1=O,Potency,[19],"inconclusive: 21.7 µM [cytotoxic, partial curve, poor fit]"
same,Potency,[4],inactive
CC(=O)N1CCN(c2ccc(O)cc2)CC1,Potency,[14],inactive
same,Potency,[18],"inconclusive: 13.3 µM [falling, partial curve, poor fit]"
